Measurements published in PubChem BioAssay AID1452 (National Center for Advancing Translational Sciences (NCATS), 2008).
Out of some 150,000 compounds screened, about 190 (0.13%) were called active. Inconclusive means that the source gave no clear call. Such entries were picked first, then a sample of the others. The call rests on the fitted dose curve; in most records, active means well fitted inhibition curve with a large enough effect; inconclusive means small, poorly fitted or top-dose-only effect; inactive means flat fitted curve, though single readings scatter. Potencies beside an inconclusive call are fits to weak or partial responses and may not hold up.
Further: nearly all actives have a fitted effect of over 55% in size.
On the % scale 0 is the no-effect control and ±100 the full control effect; potency means the concentration at half of the fitted maximal effect; tags describe the fitted curve by direction and shape.

These compounds were tested against Polyunsaturated fatty acid lipoxygenase ALOX12 (Homo sapiens) (UniProt P18054) (assay: qHTS Assay for Inhibitors of 12-hLO (12-human lipoxygenase)). Details: purified 12-hLO, xylenol orange hydroperoxide absorbance; series mostly up to 57.1 µM; activity change, negative = inhibition: at the top concentration.
Sequence of UniProt P18054 (P18054 whole entry, looked up): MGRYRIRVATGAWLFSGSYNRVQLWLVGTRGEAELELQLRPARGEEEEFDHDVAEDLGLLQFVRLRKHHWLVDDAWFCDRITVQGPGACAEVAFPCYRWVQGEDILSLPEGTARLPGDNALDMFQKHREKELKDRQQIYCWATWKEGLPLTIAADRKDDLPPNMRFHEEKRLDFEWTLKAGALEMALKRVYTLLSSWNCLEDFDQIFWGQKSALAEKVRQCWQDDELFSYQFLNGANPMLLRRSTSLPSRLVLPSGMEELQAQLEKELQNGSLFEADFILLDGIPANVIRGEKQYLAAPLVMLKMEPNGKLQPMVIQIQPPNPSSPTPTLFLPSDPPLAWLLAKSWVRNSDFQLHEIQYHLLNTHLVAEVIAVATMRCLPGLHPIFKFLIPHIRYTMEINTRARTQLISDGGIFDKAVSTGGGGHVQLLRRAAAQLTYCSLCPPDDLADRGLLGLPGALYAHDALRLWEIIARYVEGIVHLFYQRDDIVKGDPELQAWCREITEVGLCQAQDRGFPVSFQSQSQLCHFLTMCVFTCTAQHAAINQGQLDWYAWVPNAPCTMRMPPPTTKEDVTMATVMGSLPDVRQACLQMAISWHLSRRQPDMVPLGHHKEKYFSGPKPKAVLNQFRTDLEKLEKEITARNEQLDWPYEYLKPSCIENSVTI
In short: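 Purified human 12hLO (150 nM final) was preincubated with compounds for 15 min at room temperature in 25 mM Hepes pH 7.0, 0.01% Triton X-100, then reacted with 40 uM arachidonic acid for 30 min. Hydroperoxide was detected with ferrous iron/xylenol orange.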
For `CSC1=N/C(=C\c2ccc(C)o2)C(=O)S1`, the Potency was inconclusive: 20 µM [inhibitor, partial curve].
`Cn1c(=O)c2c(nc(CN3CCC(C(N)=O)CC3)n2CCCc2ccccc2)n(C)c1=O` was tested, and the “activity change, negative = inhibition” value was inactive: 0.87%.
`Cn1cccc1C(=O)N1CCC2(CC1)CN(Cc1cc(C(F)(F)F)cc(C(F)(F)F)c1)C2` was tested, and the “activity change, negative = inhibition” value was inactive: -7.6%.
`O=S(=O)(Nc1nnc(-c2ccccc2)s1)c1ccc(Cl)cc1` was tested, and the Potency was inconclusive: 17.8 µM [inhibitor, partial curve].
In the case of `COc1ccc(Br)cc1/C=N/NC(=O)CNC(=O)/C=C/c1ccccc1`, the Potency is reported as inconclusive: 2.24 µM [inhibitor, full curve, poor fit].
With `O[C@H]([C@H](O)[C@@H](O)c1nc2ccccc2[nH]1)[C@@H](O)c1nc2ccccc2[nH]1` the Potency was inconclusive: 1.41 µM [inhibitor, single point].
With `N#Cc1ccc(/C=N/NC(=O)c2cc(-c3cccs3)nc3ccccc23)cc1` the Potency was inconclusive: 2.82 µM [inhibitor, full curve].
For `Cc1ccc(CNc2ccc3c(c2)OCO3)cc1`, the Potency was inconclusive: 14.1 µM [inhibitor, partial curve].
`CCOc1ccc(NC(=O)CSc2nc3ccccc3c(=O)n2CCCC(=O)N2CCCC2)cc1` was tested, and the “activity change, negative = inhibition” value was inactive: -5.73%.
In the case of `CN1Cc2c(N)cccc2[C@H](c2ccccc2)C1`, the Potency is reported as inconclusive: 5.01 µM [inhibitor, single point].
In the case of `CNC(=S)N/N=C(\C)c1ccc(Cl)s1`, the Potency is reported as inconclusive: 28.2 µM [inhibitor, single point].
`O=c1[nH]c(SCc2ccccc2Cl)nc2c1CCCC2` was tested, and the “activity change, negative = inhibition” value was inactive: -0.915%.
For `Nc1ccc(O)cc1C(=O)OCC(=O)C12CC3CC(CC(C3)C1)C2`, the Potency was inconclusive: 20 µM [inhibitor, partial curve].
In the case of `Cc1cccn2c(NC(=O)c3cccs3)c(-c3ccccc3)nc12`, the “activity change, negative = inhibition” value is reported as inactive: 1.18%.
In the case of `COc1ccc2c(c1)c(C(O)CN1CCN(Cc3ccc4c(c3)OCO4)CC1)c(C)n2C` (stereo not drawn), the Potency is reported as inconclusive: 39.8 µM [inhibitor, single point].
In the case of `Cc1cc2cc(C(c3nnnn3Cc3ccco3)N3CCc4ccccc43)c(=O)[nH]c2cc1C` (stereo not drawn), the Potency is reported as inconclusive: 14.1 µM [inhibitor, partial curve].
`COc1ccc(/C=C/C(=O)c2ccc(O)cc2O)cc1OC` was tested, and the Potency was inconclusive: 25.1 µM [inhibitor, single point].
`Cc1ccc(N2NC(C)(c3cccs3)NC2=S)cc1` (stereo not drawn) was tested, and the Potency was inconclusive: 2 µM [inhibitor, full curve].
With `COC(=O)c1c(NC(=O)CN2CCN(Cc3ccc4c(c3)OCO4)CC2)sc(C)c1C` the “activity change, negative = inhibition” value was inactive: -12.3%.
With `O=C1OC(CO)C(O)C(O)C1O` (stereo not drawn) the “activity change, negative = inhibition” value was inactive: -0.92%.
For `CCOc1ccc(C(=O)NC(=S)N(Cc2ccccc2)Cc2ccccc2)cc1`, the Potency was inconclusive: 31.6 µM [inhibitor, single point].
With `O=[N+]([O-])c1c(NCCO)cc(Sc2nc3ccccc3s2)c2nonc12` the Potency was inconclusive: 22.4 µM [inhibitor, single point].
`CCN(CC)S(=O)(=O)c1ccc2oc(C(=O)N3CCc4ccccc4C3)c(C)c2c1` was tested, and the “activity change, negative = inhibition” value was inactive: 0.474%.
For `CC(=O)Nc1sc2c(c1C(c1ccc(F)cc1)N1CCOCC1)CCCC2` (stereo not drawn), the “activity change, negative = inhibition” value was inactive: -16.4%.
For `FC(F)Sc1ccc(NC(=S)NC2CCCCC2)cc1`, the Potency was inconclusive: 39.8 µM [inhibitor, single point].
For `CN(CC[C@@H](Oc1ccc(-c2ccccc2)cc1)c1ccc(F)cc1)CC(=O)O`, the “activity change, negative = inhibition” value was inactive: -1.66%.
With `Nc1nc(Nc2ccc(Cl)cc2)nc2ccccc12` the Potency was inconclusive: 22.4 µM [inhibitor, single point].
For `O=C(COC(=O)c1ccc([N+](=O)[O-])s1)Nc1ncc(C(F)(F)F)cc1Cl`, the “activity change, negative = inhibition” value was inactive: -5.85%.
In the case of `Cc1ccc(N=N/C(=C\O)C(=O)c2ccncc2)cc1`, the “activity change, negative = inhibition” value is reported as inactive: -18.8%.
In the case of `CC(=O)N(c1ccc2oc(=O)sc2c1)S(=O)(=O)c1cccs1`, the Potency is reported as inconclusive: 22.4 µM [inhibitor, partial curve].
For `CC1(C(=O)CSc2nc3ccccc3[nH]2)CCC(=O)O1` (stereo not drawn), the “activity change, negative = inhibition” value was inactive: 4.43%.
`Fc1cccc(F)c1/C=C/c1ccc2ccccc2n1` was tested, and the “activity change, negative = inhibition” value was inactive: -1.85%.
In the case of `CCOC(=O)C1=C(NC(=S)NC(=O)c2ccccc2)c2ccccc2CC1(C)CC` (stereo not drawn), the Potency is reported as inconclusive: 1.78 µM [inhibitor, partial curve].
With `CCOc1ccc(CNC(=S)N/N=C/c2ccc(OC)c(OC)c2)cc1` the Potency was inconclusive: 28.2 µM [inhibitor, single point].
With `Cc1ccc2cccc(NC(=S)NC(=O)c3ccccc3)c2n1` the Potency was inconclusive: 12.6 µM [inhibitor, partial curve].
For `O=C(c1ccc2snnc2c1)N1CCN(c2ccccc2)CC1`, the “activity change, negative = inhibition” value was inactive: 5.11%.
`O=C(c1ccc2c(=O)n(-c3ccccc3)c(=O)[nH]c2c1)N1CCN(c2ccc(F)cc2)CC1` was tested, and the “activity change, negative = inhibition” value was inactive: 0.291%.
In the case of `O=C(N/N=C/c1c(O)ccc2ccccc12)c1cccc(C(F)(F)F)c1`, the Potency is reported as inconclusive: 0.251 µM [inhibitor, full curve].
With `COc1ccc(N2C3=C(CC4=C2CC(C)(C)CC4=O)C(=O)CC(C)(C)C3)cc1` the Potency was inconclusive: 28.2 µM [inhibitor, partial curve].
`COc1cc(-c2csc(C)n2)ccc1O` was tested, and the “activity change, negative = inhibition” value was inactive: 2.95%.
For `O=C(NC(NNc1ccc([N+](=O)[O-])cc1)(C(F)(F)F)C(F)(F)F)c1ccc(Cl)cc1`, the Potency was inconclusive: 39.8 µM [inhibitor, single point].
In the case of `CCOc1ncccc1C(=O)OCC(=O)c1c(N)n(C)c(=O)n(C)c1=O`, the “activity change, negative = inhibition” value is reported as inactive: -2.41%.
For `CCOC(=O)C1=C(C)C(c2cccc(Oc3ccccc3)c2)NC(=S)N1` (stereo not drawn), the Potency was inconclusive: 15.8 µM [inhibitor, partial curve].
In the case of `Cc1cccc(NC(=O)/C(C#N)=C\c2cccnc2)c1`, the “activity change, negative = inhibition” value is reported as inactive: 0.465%.
In the case of `COc1ccc2c(c1)S/C(=C\C(=O)c1ccncc1)N2C`, the Potency is reported as inconclusive: 4.47 µM [inhibitor, full curve].
With `CCOC(=O)c1c(NC(=O)c2ccco2)n(C2CCCCC2)c2nc3ccccc3nc12` the Potency was inconclusive: 20 µM [inhibitor, partial curve].
`CCCS(=O)(=O)N1CCN(CCCc2ccccc2)CC1` was tested, and the “activity change, negative = inhibition” value was inactive: -0.31%.
For `O=C(Cn1cnc2c(nnn2Cc2ccc(F)cc2)c1=O)N1CCCCC1`, the “activity change, negative = inhibition” value was inactive: -1.83%.
